Test results published in the supplement of paper PMC11417369.
This is one part of the list.

system: PfSIP2 AP2 domain 1 (GST-tagged); test: gcPBM binding intensity (ln(normalized median fluorescence intensity)); higher = stronger DNA binding
In short: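 GST-fused DNA-binding domains of P. falciparum, expressed in E. coli, were applied at about 25 μg on average for 1 h to an Agilent 4 × 180k array of primer-extended double-stranded 36-bp intergenic genomic probes and negative controls. Binding intensity is the highest Masliner-normalised natural-log median intensity across replicate spots of either probe orientation, measured with Alexa488 anti-GST antibody and a 488 nm scan.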

Point of comparison: “ATCGAAATTTTAGAATATATATGATGTTACTTAAGT [GTGCAC_negctrl_site611]”, “gcPBM binding intensity (ln)” value 6.93. Against it:
- ATTTATTTATTGGCACGTACAAATTTGTGTTTTCCA [XGTACX_site6978] — higher, 7.23
- TTGTAAATTTCTGGTTATATATTTTATGTATATGTT [CACACA_negctrl_site1443] — lower, 6.88
- TTTTTTTCTTTTCAAACACACAATTGGTATATATCA [CACACA_site7542] — lower, 6.85
- AAAGAAATGAAATATACACACATACATAAATACATA [CACACA_site6081] — lower, 6.88
- AATTATATATTATAATGTACATATATATAACTATAC [XGTACX_site1865] — higher, 7.13
- ATAAAGGAAATTACAAGTACAAATAAGATAAAATAA [XGTACX_site4514] — higher, 7.03
- ATATATTTAAACTACACACGCATATCTTAGAAATAA [CACACA_site1272] — higher, 7.03
- TATAAAAAAAGAGGAGGGATGGTATACTTGTGGTTT [TGCATGCA_negctrl_site49] — higher, 6.94
- ATGGATTATACGTGCACACATATATACAAATAAATA [CACACA_site640] — higher, 10.5
- ACCATTTGTAGGTAAACACACATTATTATTAATATC [CACACA_site2635] — higher, 7.12
- TAAAATGCAATCTGAACACACATATTTTTTTAATAT [CACACA_site6922] — lower, 6.8
- TACATCATACGAACAGTGCATATTATTATTGTTCTG — higher, 8.05
- TATATATCATATGATACATGCAACAAAATGCATAAT [TGCATGCA_site205] — higher, 7.16
- TACTTACCAAAATACACACACACACTAGATATATAA [CACACA_site5096] — higher, 7.2
- ATGTATATTACTCATTGTACTTATATTTTCTTATTA [XGTACX_site8897] — higher, 6.98
- GTATTTATAAATTATAGTACTTTGCGTATCATATAT [XGTACX_site7358] — higher, 7.19
- ATTTTATATCTGGATAGTACTTTAATATTTCAAATG [XGTACX_site7304] — higher, 7.04
- GGATATTCATTAACCACACACACAAAAAAAATAAAA [CACACA_site3800] — higher, 7.18
- TTATATTATACATACACACCCATATAATATGTTTTT [CACACA_site4636] — higher, 7.06
- TCTTATGAATATCCCCGTACACATATATTTCTTATA [XGTACX_site6877] — higher, 7.22
- TTGTTTTTGTTCTTGGGTACTTAAATTATAAATGAT [XGTACX_site113] — higher, 7.35
- AGCTACACACCACAATGTACATAAATATATATGTGA [XGTACX_site1483] — higher, 7.03
- AGAATATTTAATTCAACACACATACATATTTATTAA [CACACA_site5318] — lower, 6.8
- TATTGTATATACTATACACACACATACATACATACA [CACACA_site8172] — higher, 8.03
- CAAATATACATATGTAGTACATGTTGTAGATAATTT [XGTACX_site2790] — higher, 7.15
- ATATATTTATATAAATGTACATACAGCACATTTATA [XGTACX_site4725] — higher, 7.05
- GGATAATATATTAGAACACACATATAGATGTAAAAA [CACACA_site6229] — lower, 6.91
- GAAGCCCTATGAAAAGTGCGGTTCATGAACAAAGAA [GTGCAC_site9828] — higher, 7.54
- TACTTTATATAAAGATCAAAAAATAAATAATTATAA [TGCATGCA_negctrl_site446] — lower, 6.84
- ATAAGGAAGGGATGCACACAAAAGGGTACATAAGAA [CACACA_site4006] — higher, 7.5
- TTTGAATCCTTATATACACACATTATAAAATATTAT [CACACA_site6406] — higher, 7.14
- TATTTGTAAATCGATACACACATATAGATTAATATA [CACACA_site6237] — lower, 6.81
- GGTTCATTAAAGTGTACACATAAATACCGTAACATT [CACACA_site6002] — higher, 7.43
- CTAAGGTATGATTAATCACACACATAAATATATATA [CACACA_site8847] — higher, 7.38
- AGAATAAGAATTATTAGTACTTATAAATATTATATT [XGTACX_site7228] — lower, 6.89
- TAATTTAAAATATATAGTACACACGTGAACACAAAT [XGTACX_site792] — higher, 7.36
- CTATTACATTAAATGTGTACATATATATATATATAT [XGTACX_site5233] — higher, 9.28
- GTAAATACACATATGTGTACATATATATATATATAT [XGTACX_site3696] — higher, 9.71
- GTGGCTACTATATATTGTACGATATTATATATATAC [XGTACX_site8376] — higher, 6.98
- TAAAATATCATAGATAGTACATATAACGTTTTATAT [XGTACX_site5666] — higher, 6.99
- CATGACATAAAAAATATACACACTATAATATATATA [CACACA_site1402] — higher, 7.62
- ATGAAAATTTATATTGCACACATAGGGAATAAAAAA [CACACA_site8667] — higher, 7.42
- AAATATATTATATTTAGTACGCATATATAATATGCA [XGTACX_site4835] — lower, 6.87
- AGTTAATTAATAGGCACACATATATATGTATAAATA [CACACA_site523] — higher, 7
- ACCATATAAATAAACACACACACACCCATATATATA [CACACA_site2321] — higher, 7.76
- TATATATCTATATTTACACACAGTTACTATGTAGAT [CACACA_site7532] — lower, 6.78
- GTTAAACTTAATATCGGTACACACACAAGATAAGAA [XGTACX_site1660] — higher, 7.45
- ATAATATGTATAATCACACATTTTTCTTTTAAGACA [CACACA_site5297] — lower, 6.82
- TATTTTTTTTGTCATATATAAGAAACGCTCTTCTTT [TGCATGCA_negctrl_site127] — higher, 6.94
- ATATTTATATTTTCATGTACGTATTTTTATATATAT [XGTACX_site8478] — higher, 7.47
- TGAAATAAAATTTGTACACACATATTTATTTATATA [CACACA_site6421] — lower, 6.86
- TGCATTATATTAAATTTTTTATTTGTTGATGTTATA [GTGCAC_negctrl_site371] — lower, 6.76
- AAATAAAAGATATTTTTACACACTTTTGATGAGATC [CACACA_site9000] — lower, 6.75
- ATATATATACATATAACACACACATATATATATATA [CACACA_site8827] — higher, 9.22
- TTGTATTTATTTATGGGAGGATTATAATCATTGTAG [GTGCAC_negctrl_site268] — higher, 7.21
- TAATTCACATTTTATACACACATTCGAACCTTTTTT [CACACA_site3341] — lower, 6.92
- ATTTTTATTAGTTATTGTACTTATTATTTATTAATT [XGTACX_site2568] — higher, 7.03
- TATAGATATATACGGTGTACATACATAAAAAAAAAA [XGTACX_site1648] — higher, 7.27
- TATAGTCAACTAGTCACACATATAATTATATATATA [CACACA_site5872] — higher, 7.95
- TATAAAGAAATCATTACACACAAATAAATACATACA [CACACA_site2675] — higher, 7.05
- GGTTAGACGAAATATACATGCAATGGAAAATAAGTT [TGCATGCA_site23] — higher, 6.97
- ATATTAATTTCTCATGCATGTTCTTCCCAATTGTAA [TGCATGCA_site425] — higher, 7.19
- TCATCATGTATGTACACACATACATATATTATGTAC [CACACA_site1386] — higher, 7.01
- CTTTTTGAAATATTAACACACATTTTGTTAATGAAT [CACACA_site6087] — higher, 6.99
- CACAAGAAAATTCACACACACACATATATATATATA [CACACA_site3880] — higher, 9.31
- TCCTTAATTCAAAAAATAATATCTTATATTTCAAAT [CACACA_negctrl_site1592] — lower, 6.83
- GGAATAAAGACAGCACGTACATATCTTACGAAGCTC [XGTACX_site3918] — higher, 6.97
- AACACTCAAAAAAATTTAAATAAAAAAAAAAAAAAA [CACACA_negctrl_site680] — lower, 6.91
- ATGATTTTTTTTATTTTTTAGCTAGAGCTAGCTTAT [CACACA_negctrl_site433] — lower, 6.81
- TATGGAAGAAAATATACACACAAAAAAAAAAAATGG [CACACA_site4924] — higher, 6.99
- ATATGTTAAAAATTCACACAAAAAAGTATACAGATA [CACACA_site4179] — higher, 7.03
- TATGAATGCTTTTATGCACACGTACAAAAATATTAT [CACACA_site8851] — higher, 7.22
- TTACCTATTCTAAAATGTACACATTATATATGTGCT [XGTACX_site5776] — higher, 7.2
- ACATGTTTCATATGTTGTACTAACTTAAATATAAAT [XGTACX_site6412] — higher, 7.21
- TTGTACATCTTTTGCACACGTAATGTTATTAAAATA [CACACA_site4827] — higher, 7.51
- TGTATATTTGTTGTTACACACATATATTTTTTTTTT [CACACA_site128] — lower, 6.92
- TTAACTATAATAAAATGTACATATGTAACATATATA [XGTACX_site7790] — higher, 7.06
- TTATAACAAAAAATTAAAGAAAGAGAATAAGTGAAA [CACACA_negctrl_site975] — higher, 7.11
- AGGTCCTACACCAATAAATATCATATATATATTATA [CACACA_negctrl_site568] — higher, 6.98
- TTGATATCTTTTTTTTGTACATATATTTATAAGTAA [XGTACX_site3538] — lower, 6.9
- TTTTAGAGTGATATATATTAACTTTTAATAAAAAAA [CACACA_negctrl_site611] — lower, 6.71
- AAAATATAAGCCACTACACACATATATAAATGTATA [CACACA_site2639] — higher, 7
- TTTTTTTAAATTATATGTACATAATTTTAATTTTAT [XGTACX_site5086] — higher, 7
- GTTATACACATATATACACACATATGTAGATATATA [CACACA_site7529] — higher, 7.01
- TAAAGTACAGGAGTAAATTGAAAAAAAAAAAAAAAA [CACACA_negctrl_site1410] — lower, 6.76
- TATAATATTCCTTTTTAACACACATATGAACAAATA [CACACA_site7932] — higher, 7.04
- ATAAATAAATAAATACGTACATATATATATATATAT [XGTACX_site8838] — higher, 8.89
